Self-cleavage data for 167 variants are collected here from the RNAGym collection of RNA variant scans (doi:10.7554/elife.90254).

Read counts are not given, so values of variants with three or more changes are uncertain.

B1: LINE1-mini (parent)
chain: GGCAGAGCUCAACACAGCGUGGCAAAGUGGCUGUGGCUAGACUGCC

The variants in the series derive from B1. The series is described as follows: self-cleavage, relative activity (ratio to wild type); higher = more cleavage; in vitro, sequencing; the parent is a self-cleaving ribozyme.
On to C8A A11C G21A G22U U38G A41U C45U, for which the self-cleavage is 0.
As for G7U C18G G29A, the self-cleavage came out at 0.03.
C8A C15G C18G: the self-cleavage came to 0.02.
With G7U C8A C15U, the self-cleavage was 0.71.
Take G7U G30C G40A: the self-cleavage came out at 0.18.
The figure for G7U U34C G44A C45G is 0.03; for C8A A12C U32C G35U it is 0.05; for G7U A14G C18A it is 0.01.
Consider G7U G17U C37G C46G, for which the self-cleavage worked out at 0.02.
The figure for G7U C13U G21U is 0.15.
The figure for C8A C13U U20A G29U C31U is 0.2; for C8A C15G U28G G30U it is 0.13; for G7U A14U A24U it is 0.45.
The figure for G7U C13A A14U C15U G35C A39U is 0.02; for C8A C15A U34A G40C it is 0.15.
On to C8A C10U U38A, for which the self-cleavage came out at 0.05.
The figure for G7U G21A G40U is 0.12.
Consider C8A C18G C31G C46A, for which the self-cleavage turned out to be 0.12.
Next, G7U A16C U34A: 0.01; G7U U32A A39C: 0.03; C8A C13U A25C: 0.15.
Next, G7U C8G C15G A16G U34C: 0.01; G7U C8U U9G A41U C42A C46U: 0.11.
As for C8A A11U G30U C45G, the self-cleavage amounted to 0.03.
Regarding G7U G21U A41U, the self-cleavage stood at 0.09.
On to G7U A14G G33U, for which the self-cleavage was found to be 0.25.
On to G7U G29U G40A U43C, for which the self-cleavage stood at 0.04.
As for C8A A14G G30U U34C, the self-cleavage was determined as 0.03.
Next, G7U C15G C42U: 0.04; C8A G17U U38C: 0.19; C8A G22U G29U U38C: 0.36.
The figure for C8A C13U C18A U28G is 0.42; for C8A G17U G29U it is 0.24.
As for G7U C13G C46U, the self-cleavage came out at 0.06.
The figure for G7U U20G C45A is 0.04; for G7U A16U U20C G22U it is 0.07; for G7U A14U C18G it is 0.09.
The figure for C8A A14C U43A is 0.27; for G7U A14G U32C it is 0.1.
With G7U C23A G30A, the self-cleavage was found to be 0.2.
The figure for C8A C10A C18U G22A C37G G40A is 0.01; for C8A C18G G21C C31U C42G it is 0.07; for G7U C23U U34A C46A it is 0.03.
On to C8A G21U C23U A24G G33A G35C C37A A39U C46A, for which the self-cleavage was found to be 0.02.
On to G7U A14C G19U A26U, for which the self-cleavage is 0.02.
The figure for C8A G19A C23G U43C is 0.06.
In the case of C8A A12C U32G U38G A39U G40C, the self-cleavage came to 0.
In the case of C8A A12U G27A U38A, the self-cleavage was 0.02.
On to C8A G19A G21A G27U C42G, for which the self-cleavage was 1.09.
The figure for G7U U9C G33U is 0.07; for C8A C13U G35A C37A it is 1.51; for G7U C8G G21C U28G U43C it is 0.03.
The figure for G7U C13U C18G U43G is 0.09; for G7U A16U G33C C45A it is 0.03.
Take C8A A12C U38C G40U G44A: the self-cleavage turned out to be 0.02.
The figure for C8A C13U C45A is 0.57.
Next, C8A C18U G22A G40C C46A: 0.16.
Next, G7U G29A U38G: 0.02; G7U C15A G29U A39U A41G: 0.16.
Take G7U C8A G19C G40A: the self-cleavage was 0.06.
On to G7U C23U U28A G36U C46G, for which the self-cleavage came to 0.01.
On to G7U C8U G21C C45A, for which the self-cleavage came out at 0.19.
Next, C8A C15U G36A: 0.48; C8A C23U C46A: 1.28.
Next, G7U U9C G17A C18U G33U: 0.04; G7U C10G A14C G44U C46A: 0.07.
With C8A C15A G19U A41C, the self-cleavage was 0.09.
G7U U38G C46A: the self-cleavage worked out at 0.
Next, C8A G17C G19A: 0.71.
Next, G7U C13G A24C G40A: 0.07.
Next, G7U C13G G22U: 0.07.
As for C8A G21C C45A, the self-cleavage was 0.66.
With G7U C8U C31G, the self-cleavage amounted to 0.11.
Turning to G7U C8U A11C C15A A39U, the self-cleavage amounted to 0.04.
Next, C8A C13A U20A A24U A26U: 0.22; G7U G22A C23A G29U G36A G40A C45U: 0.08; G7U U34G G35U: 0.06.
The figure for C8A C10A G30U C37U U38G C46G is 0.02.
Take G7U C8A C37U C45A: the self-cleavage is 0.35.
Next, C8A G21A G29C G30U: 0.08.
The figure for G7U C18U U20G is 0.02; for G7U C10A A12G U38G G40U it is 0.01.
For the variant G7U C8A A16G C23G, the self-cleavage came out at 0.13.
Next, C8A C13A G22A G35C: 0.23; C8A A11U G22U G40C: 0.03.
Next, C8A A24U G40U: 0.31; G7U C18U U32G G40A: 0.13.
Next, C8A C10G G19U G27C G33U A41U U43A: 0.01; G7U G27U U28C U32A U38C: 0.03; C8A A12C C23U G35U G36U A41U: 0.1.
Consider C8A C13U A16U G30C, for which the self-cleavage is 0.09.
Next, G7U G29U C42A: 0.08; G7U C13A A25G G27A U28G C37A U38C: 0.01.
Next, C8A G27C U34A: 0.15.
In the case of C8A G17C A26G, the self-cleavage amounted to 0.19.
Take G7U C23U G35A: the self-cleavage turned out to be 0.04.
Next, G7U G19A G21C: 0.04; C8A A16U A24G U34A: 0.14.
The figure for G7U C10G A41G C45U is 0.01; for C8A A12C U20C it is 0.03; for C8A G17C A41G it is 0.06.
For G7U U20C G21U C42U, the self-cleavage was 0.04.
Consider C8A C10G G19U, for which the self-cleavage was 0.08.
The figure for G7U U20A G27A is 0.01; for G7U A14G C15G it is 0.06; for C8A A11C C13U G29C G35U A39G it is 0.
As for C8A G19U A41U, the self-cleavage was determined as 0.22.
Next, G7U G22C U32G G33A G40C: 0.07; C8A G17U G27U G33U: 0.16; C8A G19C U20A A26G G30C C31U U32C: 0.03.
Next, G7U U20G C23A: 0.01; C8A G22C G33A U34C C37U C45A: 0.2; G7U G22U G27C G40C C42U: 0.31.
C8A C10G U38G: the self-cleavage turned out to be 0.01.
The figure for C8A C10U C13U C42U is 0.08.
Regarding C8A G22A U34C G44C, the self-cleavage is 0.03.
For C8A C42U C45G C46U, the self-cleavage came to 0.15.
Next, G7U A14C C18U U20G G40A C45U: 0.
Next, G7U C8G A26C: 0.19.
Take C8A A26U U38A C45G C46A: the self-cleavage amounted to 0.68.
Consider C8A A12U C37G A41C, for which the self-cleavage was determined as 0.03.
Take G7U G21A C31U: the self-cleavage was 0.09.
As for G7U G17U U34C G40C, the self-cleavage was 0.07.
Next, C8A A16G G19A G30U: 0.11; C8A A24C C42U: 0.12; G7U G22A G33U C37U C42U G44U: 0.
Next, G7U C15G G33A: 0.02; G7U C13A C31A G44A: 0.12.
The figure for G7U C8A A26G G44U is 0.14.
Consider C8A C13A G17U A25G G29U G33A, for which the self-cleavage came out at 0.15.
Next, G7U C8U A16U G40A: 0.14.
The figure for G7U C13U C23U G33A is 0.19.
Next, C8A C23A G33U A39C: 0.15.
As to G7U G22C A26U, the self-cleavage turned out to be 0.06.
In the case of C8A C15A G40U, the self-cleavage was 0.08.
For the variant C8A A11G G17C G19C G35C G40C, the self-cleavage worked out at 0.02.
As to C8A A12G A25C C31A, the self-cleavage was 0.37.
Turning to G7U C18G C23G G30C, the self-cleavage was found to be 0.03.
Next, G7U C10A U28G: 0.01; C8A A14U U20G U38C C46A: 0.22.
Next, G7U U9A G44A: 0.24; G7U G36C C42A: 0.12; C8A C37A A39C A41C: 0.03.
For the variant C8A C10G C13A A24U G27U G36A C46A, the self-cleavage stood at 0.01.
As to G7U C15U G22A, the self-cleavage came out at 0.1.
For the variant G7U U9G G30A, the self-cleavage was determined as 0.25.
Next, C8A A14U C37A: 0.21; G7U C18A C31A: 0.07.
Consider G7U G17C G21C, for which the self-cleavage amounted to 0.34.
Next, C8A C13A U32C: 0.5; G7U C23U U34C G36C: 0.03; C8A C10A U28G G30U: 0.02.
In the case of G7U G19A U20A G22A C37G G40A C45G, the self-cleavage worked out at 0.03.
Turning to G7U U34C G35A, the self-cleavage turned out to be 0.09.
Next, G7U C31G U38C G40C: 0.1; G7U U9G C10G C13U U32A: 0.02; G7U C13U G35U C37U: 0.06.
For C8A C15U C23A C42G G44U, the self-cleavage was found to be 0.04.
Next, C8A G21U G35U: 0.79; G7U C23U G27C: 0.03; C8A G27U U28A G35U C46U: 0.16.
On to G7U C10U C13G U43A, for which the self-cleavage worked out at 0.04.
For C8A A16U A25C, the self-cleavage came to 0.11.
As to C8A C37A A41U, the self-cleavage turned out to be 0.02.
The figure for G7U A14G G35U is 0.08; for G7U G19A G29A G36C it is 0.09; for G7U C13G U28C U32C A39G it is 0.16.
